# Results are given in words; binding and its absence hold for the method and conditions named. Binding seen in cells or lysates may run through a third protein. Some entries that bind do so weakly or less than the wild type.
# The chains behind the UniProt entries cited, without tags or fusion partners. Where a name states a change or a piece, a line headed by the entry shows the natural chain unless it says otherwise. Residues count along the entry.
# UniProt Q04206: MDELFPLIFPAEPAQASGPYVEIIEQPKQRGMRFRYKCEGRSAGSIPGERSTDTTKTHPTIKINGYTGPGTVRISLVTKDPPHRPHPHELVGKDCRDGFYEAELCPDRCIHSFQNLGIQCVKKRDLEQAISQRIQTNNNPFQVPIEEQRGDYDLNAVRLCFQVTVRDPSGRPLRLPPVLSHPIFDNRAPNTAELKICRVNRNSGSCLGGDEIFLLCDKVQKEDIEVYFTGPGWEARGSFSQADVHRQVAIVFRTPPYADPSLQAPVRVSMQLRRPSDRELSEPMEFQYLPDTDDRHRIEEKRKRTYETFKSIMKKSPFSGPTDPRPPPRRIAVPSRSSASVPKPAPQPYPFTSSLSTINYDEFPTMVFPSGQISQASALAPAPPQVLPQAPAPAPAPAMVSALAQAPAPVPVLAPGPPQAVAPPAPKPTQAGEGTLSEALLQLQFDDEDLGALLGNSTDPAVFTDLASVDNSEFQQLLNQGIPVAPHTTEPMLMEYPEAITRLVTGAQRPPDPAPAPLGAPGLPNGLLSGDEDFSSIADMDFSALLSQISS
# UniProt Q9UJU2: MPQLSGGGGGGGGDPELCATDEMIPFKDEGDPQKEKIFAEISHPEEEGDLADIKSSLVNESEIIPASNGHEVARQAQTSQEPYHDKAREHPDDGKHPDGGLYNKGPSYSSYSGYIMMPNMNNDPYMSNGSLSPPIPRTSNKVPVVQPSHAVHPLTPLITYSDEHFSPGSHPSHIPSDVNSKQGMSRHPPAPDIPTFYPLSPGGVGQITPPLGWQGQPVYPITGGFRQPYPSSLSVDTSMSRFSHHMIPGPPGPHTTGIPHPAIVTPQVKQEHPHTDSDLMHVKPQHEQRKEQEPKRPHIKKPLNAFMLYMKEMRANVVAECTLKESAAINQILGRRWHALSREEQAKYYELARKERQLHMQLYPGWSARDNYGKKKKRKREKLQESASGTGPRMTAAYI
# UniProt P36402: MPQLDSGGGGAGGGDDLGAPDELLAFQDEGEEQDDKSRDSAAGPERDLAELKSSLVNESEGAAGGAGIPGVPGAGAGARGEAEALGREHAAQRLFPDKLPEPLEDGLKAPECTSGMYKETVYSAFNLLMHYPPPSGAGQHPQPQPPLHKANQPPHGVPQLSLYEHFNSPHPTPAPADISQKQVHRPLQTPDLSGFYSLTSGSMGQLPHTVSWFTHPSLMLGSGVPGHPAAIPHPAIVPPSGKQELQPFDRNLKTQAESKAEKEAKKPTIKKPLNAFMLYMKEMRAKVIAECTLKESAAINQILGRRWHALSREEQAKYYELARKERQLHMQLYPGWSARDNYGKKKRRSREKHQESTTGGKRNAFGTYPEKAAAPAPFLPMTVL
# UniProt P19838, residues 1-433: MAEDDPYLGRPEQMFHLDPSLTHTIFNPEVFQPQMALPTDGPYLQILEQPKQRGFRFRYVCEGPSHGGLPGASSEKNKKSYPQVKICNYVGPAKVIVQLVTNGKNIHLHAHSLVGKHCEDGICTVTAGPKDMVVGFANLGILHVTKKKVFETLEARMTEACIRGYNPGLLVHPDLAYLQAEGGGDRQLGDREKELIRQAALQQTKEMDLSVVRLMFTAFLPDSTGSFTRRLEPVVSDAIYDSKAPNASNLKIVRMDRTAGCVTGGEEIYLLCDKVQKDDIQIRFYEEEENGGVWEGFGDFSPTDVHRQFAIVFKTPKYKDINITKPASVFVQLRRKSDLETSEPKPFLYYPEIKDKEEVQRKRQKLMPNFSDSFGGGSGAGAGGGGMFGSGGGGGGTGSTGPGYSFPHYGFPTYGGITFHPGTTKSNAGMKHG
# UniProt O15111: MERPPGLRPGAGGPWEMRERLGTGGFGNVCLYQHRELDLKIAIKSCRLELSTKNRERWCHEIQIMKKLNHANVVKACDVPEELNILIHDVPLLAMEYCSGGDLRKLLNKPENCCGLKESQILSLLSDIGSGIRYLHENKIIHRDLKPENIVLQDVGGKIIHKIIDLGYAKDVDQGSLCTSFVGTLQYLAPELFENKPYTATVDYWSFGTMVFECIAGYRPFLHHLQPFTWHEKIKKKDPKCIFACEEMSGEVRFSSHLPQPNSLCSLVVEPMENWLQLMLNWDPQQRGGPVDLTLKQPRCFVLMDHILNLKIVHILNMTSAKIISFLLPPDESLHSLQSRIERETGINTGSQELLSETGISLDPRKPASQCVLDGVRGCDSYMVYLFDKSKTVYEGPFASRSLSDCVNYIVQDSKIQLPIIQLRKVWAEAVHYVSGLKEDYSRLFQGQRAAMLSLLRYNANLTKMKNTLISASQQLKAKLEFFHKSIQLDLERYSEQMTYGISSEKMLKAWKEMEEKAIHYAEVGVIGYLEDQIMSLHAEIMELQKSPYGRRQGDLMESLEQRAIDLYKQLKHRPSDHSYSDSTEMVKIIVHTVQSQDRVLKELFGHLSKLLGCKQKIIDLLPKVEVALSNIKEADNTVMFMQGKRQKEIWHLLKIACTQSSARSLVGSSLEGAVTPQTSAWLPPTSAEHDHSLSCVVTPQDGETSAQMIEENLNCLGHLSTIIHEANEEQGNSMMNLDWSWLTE
# Target: NFκB transcription factor p65/RelA (human (endogenous in resting CD4+ T cells and PHA-treated T cells from PBMC)) (UniProt Q04206)
# Assay: co-IP
row,binding,Substance
1,no binding,LEF1 (from UniProt Q9UJU2 1-399)
2,no binding,TCF1 (from UniProt P36402 1-384)
3,binds,p50 (from UniProt P19838 1-433)
4,binds,phosphorylated IKKα/β (from UniProt O15111 1-745; O14920 1-756) (complex)
